The source of these data is PubChem BioAssay AID485344 (National Center for Advancing Translational Sciences (NCATS), 2010).

“And” between values parts separate entries of the source, which are not always exact repeats. Equal entries are not always repeated. The campaign covered roughly 340,000 compounds. About 6,900 (2%) were called active. Cut-off read from the data, not from the text of the source: active = inhibition above about 30%; inactive = below that, where a call was filed. The list shows a part of the results, in another mix than the full data. Where no call is shown, the source filed none.

Sequence of UniProt P14416 (P14416 whole entry, looked up): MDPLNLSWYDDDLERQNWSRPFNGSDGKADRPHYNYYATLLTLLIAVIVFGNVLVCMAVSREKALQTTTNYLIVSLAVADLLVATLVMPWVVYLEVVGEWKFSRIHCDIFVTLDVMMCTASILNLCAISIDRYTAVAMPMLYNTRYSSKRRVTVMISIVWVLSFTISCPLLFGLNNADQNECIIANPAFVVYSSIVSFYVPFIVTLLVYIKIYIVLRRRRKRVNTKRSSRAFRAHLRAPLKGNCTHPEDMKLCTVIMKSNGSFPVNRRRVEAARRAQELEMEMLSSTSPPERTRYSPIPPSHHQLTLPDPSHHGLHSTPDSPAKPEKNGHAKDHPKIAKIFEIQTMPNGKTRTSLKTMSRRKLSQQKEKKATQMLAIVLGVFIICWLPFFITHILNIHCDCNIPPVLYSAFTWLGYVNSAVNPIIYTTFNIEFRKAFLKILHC

In the assay the target is D(2) dopamine receptor (Homo sapiens) (UniProt P14416). Briefly: HTS Assay for Allosteric Antagonists of the Human D2 Dopamine Receptor: Primary Screen for Antagonists. Note: 0% is about no effect. Conditions: HEK293 TREx D2 cells, calcium flux, dopamine EC80; at 10 µM; stronger effect = higher value. The gist of the method:
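Tetracycline-induced HEK293 T-REx cells expressing D2 force-coupled to calcium signalling were dye-loaded, exposed to compound for 180 s, then challenged with an EC80 of dopamine; calcium flux was followed kinetically for a further 180 s.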
For orientation: inhibition means the change of the read-out against control, counted positive when it falls. Regarding `CCn1c(=O)c2cc(C(=O)NCc3ccc(F)cc3Cl)sc2c2ccccc21`, the inhibition is -0.0278%. Turning to `Cc1cc(=O)n(CC(=O)N2CCCc3ccccc32)c2c1c(C)nn2-c1cccc(F)c1`, the inhibition is 0.654%. Consider `Cc1c(CNC2CCC(C)CC2)c(C(=O)O)c(C)n1Cc1ccc(Cl)cc1` (stereo unspecified), for which the inhibition was -10.4%.

Consider `CC(C)c1ccc(NC(=S)N(C)CCc2ccccn2)cc1`, for which the inhibition was active: 36%.

`CCc1ccccc1NC(=O)CN1C(=O)C2CCCN2c2ccc(S(=O)(=O)N(CC)CC)cc21` (stereo unspecified): the inhibition was -9.36%. For `COC(=O)c1c(NC(=O)COc2ccc(C)cc2Br)sc2c1CCCC2`, the inhibition is 2.39%.

As for `Cc1cccc(NC(=O)C2CCCN(S(=O)(=O)c3ccc4c(c3)oc(=O)n4C)C2)c1C` (stereo unspecified), the inhibition was 13.4%. Regarding `Cc1ccc(CNC(=O)CN(C)S(=O)(=O)c2ccc3c(c2)c(=O)n(C)c(=O)n3C)cc1`, the inhibition is 17.9%.

In the case of `CCOc1ccc(N(C)S(=O)(=O)c2cc(-c3cc(C)no3)ccc2OC)cc1`, the inhibition amounted to 7.38%. Take `CCOc1ccccc1CNC(=O)c1nc(-c2ccc(Cl)cc2)n2c1CCCCC2`: the inhibition was determined as 4.03%.

Regarding `Cc1cccc(-c2nc(S(=O)(=O)c3ccc(Cl)cc3)c(N3CCCCCC3)o2)c1`, the inhibition came out at 0.986%. Turning to `CCOc1ccc(CCNC(=O)c2c(C)oc3ncn(CC(C)C)c(=O)c23)cc1`, the inhibition is 0.643%. Then `Cc1cccc(CS(=O)(=O)Cc2ccc(C(=O)NCc3ccccc3)o2)c1`, with 2.62%. In the case of `C=CCOc1ccccc1CN1CCC(Oc2ccc(C(=O)N3CCCCC3)cc2)CC1`, the inhibition was active: 47.4%. With `Clc1ccccc1CNc1ncnc2c1nc1n2CCCC1`, the inhibition was -4.02%. Take `Cc1ccc(C(=O)NCC(c2ccc3c(c2)OCO3)N2CCN(c3ccc(F)cc3)CC2)cc1` (stereo unspecified): the inhibition is 18.7%.

`CCOc1ccccc1NC(=O)Cn1c(=O)n(Cc2nc(C)no2)c(=O)c2ccccc21`: the inhibition came out at 10.8%.

On to `Cc1ccccc1C(=O)Nc1ccccc1OCc1cc(=O)n2ccccc2n1`, for which the inhibition was found to be 8.89%. Then `CC(C)NC(=O)C1CCC(Cn2c(=O)c3sccc3n(CC(=O)N3CCCC3)c2=O)CC1` (stereo unspecified), with 1.37%. Then `Cc1ccccc1Nc1cc(C(=O)NC2CCCC2)c2ccccc2n1`, with -3.04%. In the case of `COc1ccc(NC(=O)c2ccc3c(=O)n4nc(Nc5ccccc5C)sc4nc3c2)cc1Cl` it was 10.9%; in that of `Cc1ccccc1C(=O)NCc1nnc(SCC(=O)N2CCN(c3ccccc3)CC2)n1C`, active: 38.6%. With `Cc1cccc(Cn2cc(/C=C(/C#N)C(=O)Nc3cccc(Cl)c3)c3ccccc32)c1`, the inhibition is 16.1%.

As to `CCCOc1ccc(NC(=O)CC2C(=O)N(c3ccccc3)C(=O)N2Cc2ccc(F)cc2)cc1` (stereo unspecified), the inhibition was determined as 6.3%. As to `Cc1ccc(Cn2c(C(=O)O)c(CNC3CCCCC3)c3ccc(C)cc32)cc1`, the inhibition worked out at 10.8%. Consider `CCN(C(=O)c1cc2c(=O)oc3ccccc3c2s1)c1ccc(C)c(C)c1`, for which the inhibition came out at 3.85%. In the case of `Cc1cc(C)cc(NC(=O)c2cc(C)nc3c2c(C)nn3-c2ccccc2)c1`, the inhibition was -1.6%.

For the compound `CCOc1ccc(C2CC(=O)NC(NC(=O)c3ccc(C)cc3)=N2)cc1` (stereo unspecified), the inhibition was -1.76%. On to `COc1cccc(-c2nc(SCC(=O)NCC3CCCO3)c(-c3ccc(C)cc3)[nH]2)c1` (stereo unspecified), for which the inhibition came out at 23.9%. For `COc1ccc(NC(=O)Cn2c(=O)n(CCC(C)C)c(=O)c3cccnc32)cc1Cl`, the inhibition was -15.6%. With `Cc1ccc(OCC(=O)N(Cc2ccc(Cl)cc2)Cc2ccco2)cc1C`, the inhibition is -0.72%. Regarding `CCOc1ccc(NC(=O)c2cc3c(C)nn(-c4ccccc4)c3s2)cc1`, the inhibition is -7.47%. Then `COc1ccccc1N1CCN(CCCCNC(=O)c2ccc3ccccc3c2)CC1`, with active: 75.4%; and `COC(=O)c1ccc(OCC2c3cc(OC)c(OC)cc3CCN2C(=O)c2ccccc2C)cc1` (stereo unspecified), with -13.6%; and `Cc1nc(N2CCCC2)c2c(C(=O)N3CCN(c4ccc(F)cc4)CC3)c(C)oc2n1`, with -0.918%. For `Cc1ccc(-c2nnc(Nc3ccc(Br)cc3)c3ccccc23)cc1S(=O)(=O)NCC1CCCO1` (stereo unspecified), the inhibition stood at 6.32%. With `Nc1nc(N)nc(-c2cccc(Cl)c2)n1`, the inhibition was active: 32.1%.

Consider `Cc1ccccc1CN1CCN(CC(=O)NCCCN2CCN(c3ccc(F)cc3)CC2)C1=O`, for which the inhibition was active: 64.1%. In the case of `Cc1cccc(N2CCN(C(=O)Cn3ncc4c3-c3cc(C)ccc3OC4)CC2C)c1` (stereo unspecified) it was 3.57%; in that of `CCc1cccc(CC)c1NC(=O)c1c(C)oc2ccc(O)c(CN3CCN(C)CC3)c12`, 1.36%; in that of `COc1cccc(C2CC(=O)Nc3cc(OC)c(OC)c(OC)c32)c1OC(C)C` (stereo unspecified), -0.442%.

Turning to `COc1cc(CNC(=O)c2sc3ncccc3c2-n2cccc2)cc(OC)c1OC`, the inhibition was 25.9%.

In the case of `COc1ccc(NC(=O)CN2C(=O)C(C)(C)c3ccccc32)cc1Cl`, the inhibition was determined as 4.97%. With `CSc1ccc(CCNC(=O)C2=C(C)C(=O)OC23CCCCC3)cc1`, the inhibition amounted to 14.7%. For `Cc1cccc(Cn2c(=O)n(CC3CCC(C(=O)NC(C)C)CC3)c(=O)c3sccc32)c1` (stereo unspecified), the inhibition is 8.82%. For the compound `CCN(CC)CCCNC(=S)N1CCN(c2nc(-c3ccccc3)cs2)CC1`, the inhibition is active: 32.6%. Regarding `Cc1nn(-c2ccccc2)c(OC(=O)c2cccc(Br)c2)c1S(=O)(=O)c1ccccc1`, the inhibition was -3.78%. On to `COc1ccccc1CN1CCC(CNS(=O)(=O)c2cc(-c3onc(C)c3C)ccc2OC)CC1`, for which the inhibition was -8.05% and active: 33.4%. In the case of `N#Cc1nc(-c2ccc(COc3ccccc3)o2)oc1NCc1cccnc1`, the inhibition is -14.4%. In the case of `CSc1nc(Nc2ccc(C)cc2C)cc(-c2ccccc2)n1` it was 6.37%; in that of `CN(Cc1ccccc1)C(=O)C1CCN(S(=O)(=O)c2ccc3c(c2)oc(=O)n3C)CC1`, -12.8%; in that of `CCOC(=O)CNC(=O)CSc1cn(CC(=O)N2CCCCCC2)c2ccccc12`, -5.44%.

Regarding `O=C1COc2ccc(-c3cc(-c4ccc(Cl)cc4)c4c(n3)-c3ccccc3OC4)cc2N1`, the inhibition worked out at 15.2%. Regarding `Cc1cccc(C(=O)Nc2nnc(S(=O)(=O)N(C)Cc3ccc(Cl)cc3)s2)c1`, the inhibition is -6.29%. Then `Cc1cc2nc(/C(C#N)=C/c3ccncc3)[nH]c2cc1C`, with active: 36.2%; and `CCOc1ccc(C(=O)NCc2nnnn2-c2ccc(C)c(C)c2)cc1OCC`, with -1.09%.

Consider `Cc1ccc(-n2c(=O)c3ccc(C(=O)NCc4ccccc4Cl)cc3n(CC(=O)Nc3cccc(Cl)c3)c2=O)cc1`, for which the inhibition turned out to be 3.57%. Regarding `Cc1nc2cc(C(=O)NCCC3=CCCCC3)ccc2n1-c1ccc(Br)cc1`, the inhibition stood at 12.9%. Regarding `Cc1cc(C)c(NC(=O)CCN2C(=O)c3ccccc3Sc3ncccc32)c(C)c1`, the inhibition is -6.23%. Then `CCc1nn(CC(=O)NCC(C)c2ccccc2)c(=O)c2cc3occc3n12` (stereo unspecified), with 17.6%; and `Cc1ccc(C(=O)c2oc3ccccc3c2NC(=O)c2cc(-c3ccc(Cl)cc3)on2)cc1`, with -14.4%. `COc1ccc(C2=NC3(CCCCCC3)N(CC(=O)Nc3ccc(C)c(C)c3)C2=O)cc1`: the inhibition is -1.93%. Turning to `COc1ccc(CNC(=O)CN(c2cc(C(F)(F)F)ccc2Cl)S(C)(=O)=O)cc1`, the inhibition is 16.9%. `CCn1c(C)c(C)c2cc(C(=O)NCc3ccc(N(C)C)cc3)ccc21`: the inhibition was -13.3%. With `CC(=O)Nc1ccc(S(=O)(=O)NCC2CCC(C(=O)NCc3ccccc3Cl)CC2)cc1` (stereo unspecified), the inhibition is -12%. As to `C=CCn1c(SCC(=O)Nc2sccc2C#N)nc2sc(C)c(C)c2c1=O`, the inhibition was active: 32.2%.

As to `CSc1ccc(CNC(=O)Cc2csc3ccccc23)cc1`, the inhibition worked out at 7.31%.

As to `CC(=O)NCCNc1nc2c(-c3cccc(C)c3)nnn2c2ccc(Cl)cc12`, the inhibition was -6.6%. As to `COc1ccc(-n2nnnc2C2CCN(S(=O)(=O)c3ccc(F)cc3Cl)CC2)cc1`, the inhibition was 13.6%. Consider `COc1cccc(Nc2sc(C(=O)c3ccc4c(c3)OCO4)c(N)c2S(=O)(=O)c2ccccc2)c1`, for which the inhibition came to 5.85%. For the compound `CC(=O)c1cccc(NC(=O)c2sc(-n3nc(C)c(CCC(C)C)c3C)nc2C)c1`, the inhibition was 0.8%. For the compound `Cc1nc(-c2ccc(S(=O)(=O)N3CCN(c4cccc(Cl)c4)CC3)cc2)co1`, the inhibition worked out at 23.2%. As to `COc1cc(NC(=O)Cn2c(=O)n(CC(=O)NCCc3ccc(OC)c(OC)c3)c(=O)c3sccc32)cc(OC)c1`, the inhibition was -4.35%.

`COc1cc(C)nc(SCC(N)=O)n1`: the inhibition was active: 32.5%. Turning to `Cc1ccc(NC(=O)/C(C#N)=C/c2ccccc2Cl)cc1C`, the inhibition was 7.77%. As to `COc1ccccc1OCCCCn1c(C2CC(=O)N(c3ccccc3Cl)C2)nc2ccccc21` (stereo unspecified), the inhibition stood at 0.698%.

Take `O=C(NCCCN1CCCC1=O)c1cccc(S(=O)(=O)N2CCCCC2)c1`: the inhibition was active: 38.3%. For the compound `CCN(CC)CCNC(=O)CN1C(=O)c2cccnc2Oc2ccc(C)cc21`, the inhibition is -16.7%. `COc1ccc(CCNC(=O)Cn2c(=O)n(-c3ccc(OC)c(OC)c3)c(=O)c3ccccc32)cc1OC`: the inhibition is -2.91%. `CN(Cc1ccccc1)Cc1c(O)ccc2c(=O)c(-c3ccccc3)c(C(F)(F)F)oc12`: the inhibition came out at 14.6%.

With `COc1ccccc1C1CCN(Cc2ccccc2)CC1`, the inhibition was active: 83.2%. With `Cc1ccc(NC(=O)CN2c3ccccc3S(=O)(=O)c3ccccc32)cc1F`, the inhibition was 7.37%. With `CCN(C(=O)c1sc2cc(OC)ccc2c1Cl)c1ccccc1`, the inhibition is 3.37%. In the case of `O=C(NC1CCCC1)c1cnn(-c2ccc(F)cc2F)c1C1CCNCC1` it was 8.88%. With `Cc1cccc(Cn2c(=O)n(CCCCC(=O)NCc3ccc4c(c3)OCO4)c(=O)c3ccccc32)c1`, the inhibition was -5.98%. With `Cc1ccc(S(=O)(=O)N2CCN(Cc3ccccc3)CC2)c(C)c1NS(C)(=O)=O`, the inhibition was -9.39%. As for `COC(=O)c1ccn(CSc2cc(Cl)ccc2Cl)n1`, the inhibition is active: 41.8%. In the case of `CCSc1nnc2c(n1)OC(c1ccc(OC)cc1OC)N(C(C)=O)c1ccccc1-2` (stereo unspecified) it was -6.65%; in that of `Cc1ccc(C2=NC(c3ccc(F)cc3)=Nc3ccc(C)cc3N2)cc1`, 1.63%; in that of `Cc1ccc(S(=O)(=O)c2cnc(SCC(=O)Nc3ccccc3C(F)(F)F)[nH]c2=O)cc1C`, 13.6%.

As for `CCC1CCCCN1C(=O)N[C@@H](CCSC)C(=O)OC` (stereo partly specified), the inhibition was active: 36.7%. `Cc1ccc(Cl)cc1NC(=O)c1cc2c(=O)n3cccc(C)c3nc2n1C`: the inhibition came out at 9.03%. On to `Cc1cc(C)cc(NC(=O)C2CCCN(c3cnccn3)C2)c1` (stereo unspecified), for which the inhibition stood at 10.4%. Take `O=C(NCc1ccc(F)cc1)c1cnc(N2CCOCC2)c2ccccc12`: the inhibition is 19%. With `C/C(=N\NC(=S)NC1CCCCC1)c1ccccc1`, the inhibition is active: 40.7%.

Consider `CCOc1cc(CNC(=O)c2ccc3c(c2)nc2n3CCCCC2)ccc1OC`, for which the inhibition is -25.9%.
